# This is one part of the list.
# B1: PX9937F-bfa-516-16-516 (Bacteroides fragilis) (protein)
# chain: LDIDPTSSIADSNYWKTEAQFSTFNVGLHALLRECSFNFFLLGEPRADIYGDVPFGGEATQGMERLPFNTINKENTGISNFAGMYKVINQINLMIAKTKETTVLSEAGKNYYLGEAYGMRAYLYFHLLRSWGDVILYLDYTNGASLDLSNLSKAASPAEEVMKQIKEDITASEKGFGSDYSFKYGRYYWSMAATQMLKGEVYLWSGRQMGGGTADYTTAKTALQSIVSNANVSLQDDFSKVFAYNNKDNSEIIFSIRNAKDEYNMWDDRFRQNLVPQQAYMTSTYCNKEGVSFKDLPEGQLNGLIRLQIRYDLYNKAFRDGDTRKDASMTAVYQKQQDGTVKYIAPFCNKYQGVLLDGASQRSFLNDYPIYRYADCLLLLAEAKALLGEDPTAEINQVRERAYGKEFFEANKATLAYPNDKGDFYTDNKYMSGDEDPLEAILKERMREFMFEGKRWYDLRLLGADYVTKRTSAVATRLLWPINESVLTDNPALKQTPGYQN
# Tests used:
# Test in all cases: glycan array binding signal (z-score within array); higher = stronger binding
# Details in all cases: glycan notation: IUPAC condensed, linker removed
# [1] = target: GalNAc(b1-4)GlcNAc(b1-2)Man
# Summary of the method: (§1)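 The binding signal is a Z-score computed within each array and averaged over linkers. Arrays of the same protein sequence at different concentrations or buffers were also averaged together. Data originate from 3228 arrays in the Consortium for Functional Glycomics database, kept only where the protein sequence was available.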
# [2] = target: GalNAc(b1-4)GlcNAc(b1-2)Man(a1-3)[GalNAc(b1-4)GlcNAc(b1-2)Man(a1-6)]Man(b1-4)GlcNAc(b1-4)GlcNAc
# Summary of the method: as §1
# [3] = target: GalNAc(b1-4)GlcNAc(b1-3)GalNAc(b1-4)GlcNAc
# Summary of the method: as §1
# GalNAc(b1-4)GlcNAc6S = target: GalNAc(b1-4)GlcNAc6S
# Summary of the method: as §1
# GalNAc(b1-6)GalNAc = target: GalNAc(b1-6)GalNAc
# Summary of the method: as §1
# GalNAc3S(b1-4)GlcNAc = target: GalNAc3S(b1-4)GlcNAc
# Summary of the method: as §1
# GalNAc3S(b1-4)GlcNAc3S = target: GalNAc3S(b1-4)GlcNAc3S
# Summary of the method: as §1
# [4] = target: GalNAc3S(b1-4)[Fuc(a1-3)]GlcNAc
# Summary of the method: as §1
# GalNAc4S6S(b1-4)GlcNAc = target: GalNAc4S6S(b1-4)GlcNAc
# Summary of the method: as §1
# GalNAc6S(b1-4)GlcNAc = target: GalNAc6S(b1-4)GlcNAc
# Summary of the method: as §1
# Glc(a1-4)Glc = target: Glc(a1-4)Glc
# Summary of the method: as §1
# [5] = target: Glc(a1-4)Glc(a1-4)Glc(a1-4)Glc
# Summary of the method: as §1
# Glc(a1-6)Glc(a1-6)Glc = target: Glc(a1-6)Glc(a1-6)Glc
# Summary of the method: as §1
# [6] = target: Glc(a1-6)Glc(a1-6)Glc(a1-6)Glc
# Summary of the method: as §1
# Glc(b1-4)Glc = target: Glc(b1-4)Glc
# Summary of the method: as §1
# Glc(b1-6)Glc = target: Glc(b1-6)Glc
# Summary of the method: as §1
# GlcA(b1-3)Gal = target: GlcA(b1-3)Gal
# Summary of the method: as §1
# GlcA(b1-3)GlcNAc = target: GlcA(b1-3)GlcNAc
# Summary of the method: as §1
# GlcA(b1-6)Gal = target: GlcA(b1-6)Gal
# Summary of the method: as §1
# [7] = target: GlcA3S(b1-3)Gal(b1-4)GlcNAc(b1-2)Man
# Summary of the method: as §1
# [8] = target: GlcA3S(b1-3)Gal(b1-4)GlcNAc(b1-3)Gal(b1-4)Glc
# Summary of the method: as §1
# [9] = target: GlcNAc(a1-3)Gal(b1-4)GlcNAc
# Summary of the method: as §1
# [10] = target: GlcNAc(a1-4)Gal(b1-3)GlcNAc
# Summary of the method: as §1
# [11] = target: GlcNAc(a1-4)Gal(b1-4)GalNAc
# Summary of the method: as §1
# [12] = target: GlcNAc(a1-4)Gal(b1-4)GlcNAc
# Summary of the method: as §1
# [13] = target: GlcNAc(a1-4)Gal(b1-4)GlcNAc(b1-3)Gal(b1-4)Glc
# Summary of the method: as §1
# [14] = target: GlcNAc(a1-4)Gal(b1-4)GlcNAc(b1-3)Gal(b1-4)GlcNAc
# Summary of the method: as §1
# [15] = target: GlcNAc(a1-4)Gal(b1-4)GlcNAc(b1-3)Gal(b1-4)GlcNAc(b1-3)Gal(b1-4)GlcNAc
# Summary of the method: as §1
# [16] = target: GlcNAc(a1-4)Gal(b1-4)GlcNAc(b1-3)Gal(b1-4)[Fuc(a1-3)]GlcNAc(b1-3)Gal(b1-4)[Fuc(a1-3)]GlcNAc
# Summary of the method: as §1
# [17] = target: GlcNAc(a1-6)Gal(b1-4)GlcNAc
# Summary of the method: as §1
# [18] = target: GlcNAc(b1-2)Gal(b1-3)GalNAc
# Summary of the method: as §1
# [19] = target: GlcNAc(b1-2)Man(a1-3)[GlcNAc(b1-2)Man(a1-6)]Man(b1-4)GlcNAc(b1-4)GlcNAc
# Summary of the method: as §1
# [20] = target: GlcNAc(b1-2)Man(a1-3)[GlcNAc(b1-2)Man(a1-6)]Man(b1-4)GlcNAc(b1-4)[Fuc(a1-6)]GlcNAc
# Summary of the method: as §1
# [21] = target: GlcNAc(b1-2)Man(a1-3)[GlcNAc(b1-4)][GlcNAc(b1-2)Man(a1-6)]Man(b1-4)GlcNAc(b1-4)GlcNAc
# Summary of the method: as §1
# [22] = target: GlcNAc(b1-2)Man(a1-3)[GlcNAc(b1-4)][GlcNAc(b1-2)Man(a1-6)]Man(b1-4)GlcNAc(b1-4)[Fuc(a1-6)]GlcNAc
# Summary of the method: as §1
# [23] = target: GlcNAc(b1-2)[GlcNAc(b1-4)]Man(a1-3)[GlcNAc(b1-2)Man(a1-6)]Man(b1-4)GlcNAc(b1-4)GlcNAc
# Summary of the method: as §1
# [24] = target: GlcNAc(b1-2)[GlcNAc(b1-4)]Man(a1-3)[GlcNAc(b1-4)][GlcNAc(b1-2)Man(a1-6)]Man(b1-4)GlcNAc(b1-4)GlcNAc
# Summary of the method: as §1
binder,measurement,setting,value
B1,glycan array binding signal (z-score),[1],-0.282
same,glycan array binding signal (z-score),[2],-0.08
same,glycan array binding signal (z-score),[3],-0.204
same,glycan array binding signal (z-score),GalNAc(b1-4)GlcNAc6S,0.396
same,glycan array binding signal (z-score),GalNAc(b1-6)GalNAc,0.011
same,glycan array binding signal (z-score),GalNAc3S(b1-4)GlcNAc,0.111
same,glycan array binding signal (z-score),GalNAc3S(b1-4)GlcNAc3S,-0.23
same,glycan array binding signal (z-score),[4],-0.062
same,glycan array binding signal (z-score),GalNAc4S6S(b1-4)GlcNAc,-0.262
same,glycan array binding signal (z-score),GalNAc6S(b1-4)GlcNAc,-0.033
same,glycan array binding signal (z-score),Glc(a1-4)Glc,-0.063
same,glycan array binding signal (z-score),[5],-0.25
same,glycan array binding signal (z-score),Glc(a1-6)Glc(a1-6)Glc,-0.023
same,glycan array binding signal (z-score),[6],-0.212
same,glycan array binding signal (z-score),Glc(b1-4)Glc,-0.077
same,glycan array binding signal (z-score),Glc(b1-6)Glc,-0.126
same,glycan array binding signal (z-score),GlcA(b1-3)Gal,-0.361
same,glycan array binding signal (z-score),GlcA(b1-3)GlcNAc,-0.198
same,glycan array binding signal (z-score),GlcA(b1-6)Gal,-0.451
same,glycan array binding signal (z-score),[7],-0.366
same,glycan array binding signal (z-score),[8],0.04
same,glycan array binding signal (z-score),[9],-0.31
same,glycan array binding signal (z-score),[10],-0.371
same,glycan array binding signal (z-score),[11],0.087
same,glycan array binding signal (z-score),[12],-0.276
same,glycan array binding signal (z-score),[13],-0.323
same,glycan array binding signal (z-score),[14],-0.389
same,glycan array binding signal (z-score),[15],-0.359
same,glycan array binding signal (z-score),[16],0.511
same,glycan array binding signal (z-score),[17],-0.345
same,glycan array binding signal (z-score),[18],-0.311
same,glycan array binding signal (z-score),[19],-0.224
same,glycan array binding signal (z-score),[20],-0.054
same,glycan array binding signal (z-score),[21],0.059
same,glycan array binding signal (z-score),[22],-0.363
same,glycan array binding signal (z-score),[23],-0.247
same,glycan array binding signal (z-score),[24],-0.144

# — the supplement of paper PMC8728848
